# In the supplement of paper PMC11417369:
# ± gives the standard deviation of the averaged measurements. The list shows a part of the results.
# System: PfAP2-LT AP2 domain (GST-tagged)
# Test: gcPBM binding intensity (ln(normalized median fluorescence intensity)); higher = stronger DNA binding
# Outline: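 For binding intensity, the highest Masliner-normalised natural-log median intensity across replicate spots of either probe orientation was taken. Protein bound to the array was stained with Alexa488 anti-GST antibody and scanned at 488 nm. The protein, GST-tagged P. falciparum DNA-binding domains from E. coli at about 25 μg on average, had been applied for 1 h to an Agilent 4 × 180k array of primer-extended double-stranded 36-bp intergenic genomic probes and negative controls.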
row,Sequence,gcPBM binding intensity (ln)
1,TAATAAATCCTATATAGTACATATATGCAAGTATGT [XGTACX_site3955],8.94 ± 0.33
2,ATGTAACACATATTTGGTACAGATAGATAAAAGTAT [XGTACX_site8291],9.06 ± 0.49
3,TATATATATATATTCACACATAAAAATAAAATAAAA [CACACA_site4774],8.72 ± 0.43
4,TTTTTAAATAACCTATATATTATTATGAAACATAAA [CACACA_negctrl_site916],8.1 ± 0.47
5,GTATAATATATTTATAGTACATAATTATTTATAAAT [XGTACX_site1826],8.62 ± 0.5
6,TTAATATTGTATCCAAGTACACAAATTATTATATTT [XGTACX_site8067],8.71 ± 0.47
7,CAATATTATTATATTTGTACACATGCGTATTTTTTA [XGTACX_site4154],8.9 ± 0.46
8,ATATTATGTGATTGTGCACACTGGAGATTTTTTTTA [CACACA_site1453],9.18 ± 0.46
9,CCCGTAAATACAAAAAGTACAAAAGTTCATCTTATA [XGTACX_site1154],8.94 ± 0.41
10,CATGATATATAAATATGTACATATATATATATATAT [XGTACX_site1760],9.78 ± 0.28
11,TAATAATAATATAAAATACACACCTATTATTTTTAC [CACACA_site4003],8.73 ± 0.37
12,ATTGATTTTTAATATACACACATAAGTACCACAAAA [CACACA_site339],8.85 ± 0.3
13,ACATTAATATAAAGCACACATATATATAATATATAT [CACACA_site508],8.94 ± 0.28
14,AAAAATATAAACTGCACACACAAAAAAAAAAGAGAA [CACACA_site1367],9.51 ± 0.36
15,TATAACATATTTATATATGACATTATCTATTCATTT [CACACA_negctrl_site864],8.74 ± 0.53
16,ATAAAAAAATATGTAAACATATATATGTATTTATGT [CACACA_negctrl_site1517],8.89 ± 0.45
17,TTAAAATAAAGAGCAGTGCGCATATTTTGTTATTAT [GTGCAC_site9753],8.88 ± 0.47
18,TTTTTATATTTTATTAGTACTTATTATATATATAAT [XGTACX_site4900],8.69 ± 0.4
19,TTTTTTTTTAAAGAAAATAAAAATATGTACTTGACA [CACACA_negctrl_site1113],8.18 ± 0.4

row,Sequence,gcPBM binding intensity (ln)
1,AAACAATTTTTATTTTGTACATAACAATATATTTAT [XGTACX_site1375],8.7 ± 0.37
2,CATAAAAATGTATCAAGTACACATTTATTTATCCAT [XGTACX_site152],8.73 ± 0.4
3,GTATAACACAAGTGAAGTACAGGGGTAAACATTTAT [XGTACX_site3203],9.13 ± 0.45
4,TACAGATAAAAGTACACACACACACCGATATATATA [CACACA_site4675],10.12 ± 0.099
5,AATTTAAATTCATCACGTACATACGTGAATATACAC [XGTACX_site5220],8.91 ± 0.52
6,ATTTTACATATTTGCACACATATATTTATATACATA [CACACA_site854],9.26 ± 0.38
7,TTATTTGTTTAATATGCATGCTAAAAGGGTTGATGT [TGCATGCA_site581],8.77 ± 0.52
8,GAGTAAAACAAATATACACACCATAAAGTTATAAAA [CACACA_site5008],9.15 ± 0.39
9,AATATAAAAATGCACACACACAAAAAAAAAAAAAAA [CACACA_site6546],9.51 ± 0.42
10,TTTAAAATATTGTATTGTACGCAATAAAAAATACCA [XGTACX_site182],8.51 ± 0.43
11,ATTAAATAAAATCATGCACACAATATATATTTTAAG [CACACA_site2495],8.79 ± 0.45
12,ATAAGCATCTTTTGTGTGCACATAACAAAAAAAAAA,9.07 ± 0.4
13,TCTAACATATCTTTAATACACACTTAAAAAAGTACT [CACACA_site652],8.55 ± 0.41
14,ATTTATCTATATATATGTACATATTATTTTTGTGGT [XGTACX_site7390],9.02 ± 0.49
15,ATAAAAAAATATAAATGTACATATATATATATATAT [XGTACX_site5620],9.39 ± 0.38
16,GATATACAATTTAAGTGTACTATAATAAAATATATA [XGTACX_site3013],8.62 ± 0.39
17,TATATTAATTCGTTTTGTACACACATAATGAATAAT [XGTACX_site4618],8.95 ± 0.36
18,TGAGAAAGCGCATATTGTACTATATATTTTAACCAC [XGTACX_site4098],9.03 ± 0.34
19,AATCCATTCTATTTTTTACACACGTATGTAAATATT [CACACA_site8860],9.14 ± 0.37

row,Sequence,gcPBM binding intensity (ln)
1,AATATATATGGACATGCATGGACATAATAATCTATT [TGCATGCA_site838],9.04 ± 0.31
2,GAAAATAATGTTACATGTACGAATATGTAACTATTG [XGTACX_site6833],8.76 ± 0.43
3,ATAGATATACATATCACACATATATATATATATATA [CACACA_site4985],9.765 ± 0.05
4,AAATACATATATACATGTACATAAATATATATATAT [XGTACX_site5367],9.15 ± 0.19
5,TAAGGTAGTTCTGTATCACACACATATATATATATA [CACACA_site8693],9.71 ± 0.2
6,TAATTAAAATTAAGAAGTACATTTTACTTTTAATGC [XGTACX_site5120],8.32 ± 0.33
7,AAAAAATACTTATAAAGTACTAATATATATAAGCAG [XGTACX_site743],8.71 ± 0.42
8,GAGAAATTTATACATACACACATATATATATTATAT [CACACA_site4038],9.08 ± 0.4
9,TATCATGTTTTTATGGTGCATGAAATCACACATTGA,8.72 ± 0.43
10,AATACAAACCAAAAAGTAAATACATCAACATGATCA [CACACA_negctrl_site140],8.99 ± 0.42
11,TTTATTAATAAGAAATGTACACAAAATTATTTCCAA [XGTACX_site5970],8.45 ± 0.43
12,ATAGAGTCATTCCTCACACACACGCTATATGAATAG [CACACA_site2047],9.46 ± 0.28
13,TGGCACTAAAAAAATAAACACACAGATTTATATAAT [CACACA_site8386],8.88 ± 0.53
14,CCTGAAATTTTATTATGTACATATTATAAAATGATT [XGTACX_site1434],8.48 ± 0.42
15,ATAACCACATAAAATATAATTATATATATATATATA [CACACA_negctrl_site603],9.19 ± 0.36
16,ATTCCTCCCATGGAATGTACTCATCAAATAAATAAA [XGTACX_site6543],8.46 ± 0.42
17,TACACCATGATACATACACACAGACATATACTCATT [CACACA_site4708],9.3 ± 0.35
18,TCCAAATGTTTGCGTTGTACTCTTTTTTTAAAACTA [XGTACX_site5148],8.79 ± 0.54
19,AATAAAAAGGAAAGGTATATGTGTGCCCTTGTGTTA [TGCATGCA_negctrl_site83],8.99 ± 0.42
